Source: the supplement of paper PMC11880418
Structures can show the parent of a compound that is named as a salt. The list shows a part of the results. The data scatter; read single values as rough.

Tested on: T84
Experiment: ALDHbr (CSC) cell proportion score relative to DMSO vehicle (ratio to DMSO); breast (SUM159) / gastric (MKN45) / pancreatic (PANC1) / colon cancer lines; ALDHbr cells have high ALDH activity and are rich in cancer stem cells (CSC); higher = more CSC (ALDHbr) cells remaining
Details: 10 µM; 72 h
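Also: High-content imaging of ALDEFLUOR-stained cells with Hoechst-labelled nuclei in 384-well plates, triplicate wells, scored as Z-score against 0.1% DMSO vehicle, negative meaning fewer ALDHbr cells.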

| Compound | ALDHbr |
| --- | --- |
| O=C(NCCNCC(O)COc1ccc(O)cc1)N1CCOCC1 (stereo unspecified) [Xamoterol hemifumarate] | 0.854 |
| Cc1ccc2c(c1)c1c3n2CCNC3CCC1 (stereo unspecified) [Pirlindole mesylate] | 0.908 |
| CC(C(O)c1ccc(O)cc1)N1CCC(Cc2ccccc2)CC1 (stereo unspecified) [Ifenprodil tartrate] | 0.869 |
| Cc1cc(C)nc(NS(=O)(=O)c2ccc(N)cc2)n1 [Sulfamethazine sodium salt] | 0.727 |
| COc1cccc(N(C)C(=S)Oc2ccc3c(c2)CCCC3)n1 [Liranaftate] | 0.992 |
| COc1cc([C@@H]2c3cc4c(cc3[C@@H](O[C@@H]3O[C@@H]5CO[C@@H](C)O[C@H]5[C@H](O)[C@H]3O)[C@H]3COC(=O)[C@H]23)OCO4)cc(OC)c1O [Etoposide] | 0.432 |
